# Reference: PMC4336329 (PLoS ONE, 2015)
# Screen size: about 310,000 compounds; about 2,200 (0.71%) showed an effect of 50% or more. Effects have a minus sign here. Some of the results follow.
# Biological target: human ether-à-go-go-related gene (hERG) potassium channel (human, UniProt Q12809)
# Experiment: primary screen, population patch clamp on CHO cells stably expressing hERG
# Chain of human ether-à-go-go-related gene (hERG) potassium channel (Q12809 whole entry, looked up): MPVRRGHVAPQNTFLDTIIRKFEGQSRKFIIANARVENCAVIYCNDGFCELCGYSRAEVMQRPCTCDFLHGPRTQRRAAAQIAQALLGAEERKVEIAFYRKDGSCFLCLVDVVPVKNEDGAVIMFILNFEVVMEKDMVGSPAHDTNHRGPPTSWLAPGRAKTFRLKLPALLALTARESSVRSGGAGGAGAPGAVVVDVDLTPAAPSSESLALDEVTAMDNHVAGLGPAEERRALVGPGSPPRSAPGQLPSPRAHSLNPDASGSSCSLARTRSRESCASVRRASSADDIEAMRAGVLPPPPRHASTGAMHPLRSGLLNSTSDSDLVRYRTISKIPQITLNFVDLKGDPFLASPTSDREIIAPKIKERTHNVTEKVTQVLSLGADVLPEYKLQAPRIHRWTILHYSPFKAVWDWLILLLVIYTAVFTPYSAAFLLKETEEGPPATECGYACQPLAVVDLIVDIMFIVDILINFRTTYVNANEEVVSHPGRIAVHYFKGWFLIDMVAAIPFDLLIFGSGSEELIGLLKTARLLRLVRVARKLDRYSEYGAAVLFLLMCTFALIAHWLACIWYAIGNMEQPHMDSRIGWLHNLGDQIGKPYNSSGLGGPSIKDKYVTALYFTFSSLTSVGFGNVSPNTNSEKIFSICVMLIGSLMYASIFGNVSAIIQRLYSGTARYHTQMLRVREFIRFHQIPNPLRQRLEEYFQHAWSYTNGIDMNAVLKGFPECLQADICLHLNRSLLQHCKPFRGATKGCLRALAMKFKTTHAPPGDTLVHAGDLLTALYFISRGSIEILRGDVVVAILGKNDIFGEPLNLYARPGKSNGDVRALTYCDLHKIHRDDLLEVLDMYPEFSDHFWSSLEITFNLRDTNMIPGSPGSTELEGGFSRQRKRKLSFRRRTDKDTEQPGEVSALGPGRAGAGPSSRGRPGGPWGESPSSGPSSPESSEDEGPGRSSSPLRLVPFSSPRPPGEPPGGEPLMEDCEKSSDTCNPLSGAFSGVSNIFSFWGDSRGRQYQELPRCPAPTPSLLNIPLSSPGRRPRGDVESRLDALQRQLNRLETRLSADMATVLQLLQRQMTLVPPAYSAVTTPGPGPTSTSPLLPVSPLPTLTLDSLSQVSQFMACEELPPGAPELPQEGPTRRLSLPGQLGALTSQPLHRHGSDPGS
row,SMILES,"hERG current change (%, negative = inhibition) at 1uM [%]"
1,CC(C)Oc1ccc(C(=O)NC(Cc2c[nH]c3ccccc23)C(=O)NN)cc1 (stereo not shown),11.3
2,CC(C)(C)N/C=C(\C#N)S(=O)(=O)c1ccc(Br)cc1,2.97
3,Cc1cc(C)c(C)c(S(=O)(=O)Nc2ccc(OCC(=O)O)cc2)c1C,4.35
4,CCCOc1ccc(C(=O)NCCC(=O)NCCCC(=O)O)cc1,10.7
5,CCC1=C(OC(=O)N(CC)CC)N2C(=O)OC(=NCc3ccccc3)[C@]2(C)[C@H]2C1=CC[C@H]1C(=O)N(CC)C(=O)[C@H]12,12.3
6,COc1ccc(-c2noc(CNC(=O)c3ccoc3C)n2)cc1,5.41
7,CCn1c(=S)sc2c(=O)n(CC(=O)Nc3ccc(C(C)=O)cc3)c(C)nc21,11.9
8,CCn1cc(/C=N\NC(=O)c2ccc(F)cc2)cn1,8.32
9,CCOC(=O)c1ccc(Oc2nc(NC(C)(C)C)nc(N(C)C)n2)cc1,6.02
10,O=C1C2CCCN2C(c2ccccc2)N1c1ccc(Cl)cc1 (stereo not shown),13.7
11,Cc1ccc(-c2noc(/C=C/c3ccccc3)n2)cc1,8.71
12,O=C(Nc1cccnc1)c1sc(Nc2ccccc2F)nc1-c1ccccc1,17.9
13,CC(C)(O)[C@H](O)COc1c2ccoc2cc2oc(=O)ccc12,14.5
14,CC(=O)N1CSCC1C(=O)O (stereo not shown),18.3
15,COc1ccc(-c2c3c(nc4sc5c(Cl)nc(C)nc5c24)CCC3)cc1,10.3
16,CSc1nnc(-c2sccc2-n2cccc2)o1,20
17,O=C1C(=O)N(C2CCS(=O)(=O)C2)C(c2cccc(O)c2)/C1=C(/O)c1ccc(Cl)cc1 (stereo not shown),13.1
18,O=C(OC(C(=O)NC1CCCCC1)c1ccccc1)c1ccco1 (stereo not shown),5.19
19,O=C(NCc1cccc(Cl)c1)c1cc(=O)[nH]c2ccccc12,11.9
20,O=C(Nc1c[nH]c(=O)[nH]c1=O)c1cc([N+](=O)[O-])cc([N+](=O)[O-])c1,20.4
21,N#Cc1ccccc1NC(=O)Nc1ccccc1,2.39
22,COc1ccc(-c2nnc(SCc3nc4ccccc4c(=O)[nH]3)o2)cc1,8.85
23,Nc1nc(Nc2ccccc2)nc(N2CCOCC2)c1[N+](=O)[O-],1.02
24,COc1ccc(NC(=O)CN(C2CCCCC2)S(C)(=O)=O)cc1Cl,-1.74
25,CC(C(=O)OCC(=O)c1cccc([N+](=O)[O-])c1)N1C(=O)C2C3CCC(C3)C2C1=O (stereo not shown),11.7
